Our source for the binding values is PMC7671991.

Protein sequences, listed by entry. Tags and fused reporters are not part of them.
UniProt Q92624: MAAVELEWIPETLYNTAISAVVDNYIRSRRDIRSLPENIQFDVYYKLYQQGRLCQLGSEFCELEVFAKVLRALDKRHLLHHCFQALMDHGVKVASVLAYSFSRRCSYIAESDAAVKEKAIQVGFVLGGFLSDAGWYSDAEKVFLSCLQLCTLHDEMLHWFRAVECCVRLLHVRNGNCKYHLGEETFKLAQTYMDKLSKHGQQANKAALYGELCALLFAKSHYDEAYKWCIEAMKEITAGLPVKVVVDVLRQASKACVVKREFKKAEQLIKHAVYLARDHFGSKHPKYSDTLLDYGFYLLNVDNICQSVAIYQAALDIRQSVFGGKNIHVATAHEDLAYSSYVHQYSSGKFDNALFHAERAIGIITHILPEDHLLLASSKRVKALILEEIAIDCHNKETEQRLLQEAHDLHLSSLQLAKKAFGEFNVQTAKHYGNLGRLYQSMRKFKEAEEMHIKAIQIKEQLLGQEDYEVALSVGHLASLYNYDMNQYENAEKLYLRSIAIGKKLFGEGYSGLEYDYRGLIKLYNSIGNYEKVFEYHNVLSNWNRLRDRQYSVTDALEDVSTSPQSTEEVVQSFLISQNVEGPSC

No constants are given. Whether binding was seen depends on the method and setting. Some results given as binding are weak or reduced against the parent protein; the word gives no strength. Tags and fused reporters may be left off the sequences shown.

The chains are these.
B1: GAL4 AD-Krba1 (514-1044) (KRAB-A domain containing 1) (domain or fragment, UniProt Q6NXZ1-1 514-1043)
chain: QAAWPCSSAVNRGLKRTEPRNWTGDREGLRGEASEPPHLRQRPGEVPSRSLHQDSPQTCTSTCHQVTTRPGTWQWPQEETATMPSPLHRLENSLRGILPVRPLRFTCVTGPGPSPSPCSSSSFSSSDGEDLRPEPAFWQSPLQQKDQPPSCKDPVRLCPVSGASPRVNSNSCSAEDRERTEPRDCSSLSAGRAEEKPHPPRREDGAERTRQPGPVTNAEGKGAAAGHPSPAPQLEEKPEPKGTEDSRDLEPGHRPPSAAARTQGKLLSGDPPESPSKSPLPTTVLSKWSPTSLQPPCPCGRSLQQELHNLGTALTDKLDRLAAALAGLTQEVATMKTQMDQLRRHPRSLGPKGQGSWQLALPQRPRWVNRLGHRHLPYWRQKGPTRPRPKILRTQAEGCKTSDRPGLSRGKGSLVPQLPPEASLVESSRPTCSSSQQISSTPGGHTVLTAHPPLEHTACHQNPLSPSVPTSVQVPLVASPATSADTEPPAARVAAISIPNQPKEPDSLLGEALSRDLWGGDHRDPRWGAH
B2: GAL4 AD-RME-6 (561-1170) (receptor mediated endocytosis-6 = Gapvd1) (domain or fragment, UniProt Q6PAR5 561-1170)
chain: KTLRFSLCSDNLEGISEGPSNRSNSVSSLDLEGESVSELGAGPSGSNGVEALQLLEHEQATTQDNLDDKLRKFEIRDMMGLTDDRDISETVSETWSTDVLGSDFDPNVDEDRLQEIAGAAAENVLGSLLCLPGSGSVLLDPCTGSTISETTSEAWSVEVLPSDSEAPDLKQEERLQELESCSGLGSTSDDTDVREVSSRPSTPGLSVVSGISATSEDIPNKIEDLRSECSSDFGGKDSVTSPDMDDIAHGAHQLTSPPSQSESLLAMFDPLSSHEGASAVVRPKVHYARPSHPPPDPPILEGAVGGNEARLPNFGSHVLTAAEMEAFKQRHSYPERLVRSRSSDIVSSVRRPMSDPSWNRRPGNEELPPAAATGATSLVAAPHSSSSSPSKDSSRGETEERKDSDDERSDRSRPWWRKRFVSAMPKAPIPFRKKEKQEKDKDDLGPDRFSTLTDEPSPRLSAQAQVAEDILDKYRNAIKRTSPSEGAMANDESAEVMGDGESAHDSPREEALQNISADDLPDSASQAAHPQDSAFSYRDVKKKLRLALCSADSVAFPVLTHSTRNGLPDHTDPEDNEIVCFLKVQIAEAINLQDKSLMAQLQETMRCVCR
B3: GAL4 AD-sf3b155 (1-598) (splicing factor 3b, subunit 1) (domain or fragment, UniProt Q99NB9 1-598)
chain: MAKIAKTHEDIEAQIREIQGKKAALDEAQGVGLDSTGYYDQEIYGGSDSRFAGYVTSIAATELEDDDDDYSSSTSLLGQKKPGYHAPVALLNDIPQSTEQYDPFAEHRPPKIADREDEYKKHRRTMIISPERLDPFADGGKTPDPKMNARTYMDVMREQHLTKEEREIRQQLAEKAKAGELKVVNGAAASQPPSKRKRRWDQTADQTPGATPKKLSSWDQAETPGHTPSLRWDETPGRAKGSETPGATPGSKIWDPTPSHTPAGAATPGRGDTPGHATPGHGGATSSARKNRWDETPKTERDTPGHGSGWAETPRTDRGGDSIGETPTPGASKRKSRWDETPASQMGGSTPVLTPGKTPIGTPAMNMATPTPGHIMSMTPEQLQAWRWEREIDERNRPLSDEELDAMFPEGYKVLPPPAGYVPIRTPARKLTATPTPLGGMTGFHMQTEDRTMKSVNDQPSGNLPFLKPDDIQYFDKLLVDVDESTLSPEEQKERKIMKLLLKIKNGTPPMRKAALRQITDKAREFGAGPLFNQILPLLMSPTLEDQERHLLVKVIDRILYKLDDLVRPYVHKILVVIEPLLIDEDYYARVEGREIIS

The target of this assay is LexA BD-PAT1a full-length (protein interacting with APP tail 1a) (human) (UniProt Q92624). Kind of assay: two-hybrid; LexA BD baits (pHybLex/Zeo) and GAL4 AD preys (pPC86) in yeast L40; growth on selection medium lacking histidine with 20 mM 3-aminotriazole; screen of an adult mouse brain cDNA library and retransformation of the isolated clones.
For B1, the binding result is given as “binds”.

Turning to MAAAGSAAVSGAGTPVAGPTGRDLFAEGLLEFLRPAVQQLDSHVH (domain or fragment, UniProt Q9Z266 1-45) [GAL4 AD-Snapin (1-45)], the binding entry is recorded as “no binding”.

For B2, the binding entry is on record as “binds”.

With B3, the binding result was “binds”.
